Legend:
[1] = test system: rice blast fungi (Magnaporthe grisea); format: in vivo; details: spray treatment of rice plants; control value=100{1-(n/3)}
[2] = test system: tomato late blight fungi (Phytophthora infestans); format: in vivo; details: spray treatment of tomato plants; control value=100{1-(n/3)}
[3] = test system: cucumber anthracnose fungi (Colletotrichum orbiculare); experiment: Test Example H: cucumber anthracnose, spray treatment of cucumber plants; details: 250 ppm spray, 2.5 ml/pot, cucumber Sagami Hanjiro; 6 to 10 days from inoculation

SMILES	Test A control value class (rice blast) [1]	Test F control value class (tomato late blight) [2]	Test H control value class (cucumber anthracnose) [3]
O=c1c(Br)cn(-c2ccc(F)cc2Cl)c(-c2c(F)cccc2F)c1Cl [Compound 96]	H (H shows the control value of more than 50%)	L (L shows the control value of 50% or less)	H (H shows the control value of more than 50%)
O=c1c(Br)cn(-c2ccc(F)cc2Cl)c(-c2c(F)cccc2F)c1Br [Compound 97]	H (H shows the control value of more than 50%)	L (L shows the control value of 50% or less)	H (H shows the control value of more than 50%)
O=c1c(Cl)cn(-c2ccc(F)cc2Cl)c(-c2c(F)cccc2F)c1Br [Compound 98]	H (H shows the control value of more than 50%)	L (L shows the control value of 50% or less)	H (H shows the control value of more than 50%)
O=c1c(Cl)cn(-c2ccc(F)cc2Cl)c(-c2c(F)cccc2F)c1Cl [Compound 99]	H (H shows the control value of more than 50%)	L (L shows the control value of 50% or less)	H (H shows the control value of more than 50%)
O=c1c(Br)cn(CCc2ccccc2)c(-c2c(F)cc(F)cc2F)c1Cl [Compound 100]	L (L shows the control value of 50% or less)	L (L shows the control value of 50% or less)	L (L shows the control value of 50% or less)
O=c1c(Br)cn(CCc2ccccc2)c(-c2c(F)cc(F)cc2F)c1Br [Compound 101]	L (L shows the control value of 50% or less)	L (L shows the control value of 50% or less)	L (L shows the control value of 50% or less)
COc1cc(F)c(-c2c(Cl)c(=O)c(Cl)cn2CCc2ccccc2)c(F)c1 [Compound 102]	L (L shows the control value of 50% or less)	L (L shows the control value of 50% or less)	L (L shows the control value of 50% or less)
COc1cc(F)c(-c2c(Br)c(=O)c(Cl)cn2CCc2ccccc2)c(F)c1 [Compound 103]	H (H shows the control value of more than 50%)	L (L shows the control value of 50% or less)	L (L shows the control value of 50% or less)
COc1cc(F)c(-c2c(Br)c(=O)c(Br)cn2CCc2ccccc2)c(F)c1 [Compound 104]	L (L shows the control value of 50% or less)	L (L shows the control value of 50% or less)	L (L shows the control value of 50% or less)
O=c1c(Br)cn(-c2cc(F)ccc2Cl)c(-c2c(F)cccc2F)c1Cl [Compound 105]	H (H shows the control value of more than 50%)	L (L shows the control value of 50% or less)	H (H shows the control value of more than 50%)
O=c1c(Br)cn(-c2cc(F)ccc2Cl)c(-c2c(F)cccc2F)c1Br [Compound 106]	H (H shows the control value of more than 50%)	L (L shows the control value of 50% or less)	H (H shows the control value of more than 50%)
CC(C)Cn1cc(Cl)c(=O)c(Cl)c1-c1c(F)cc(F)cc1F [Compound 107]	H (H shows the control value of more than 50%)	L (L shows the control value of 50% or less)	H (H shows the control value of more than 50%)
CC(C)Cn1cc(Cl)c(=O)c(Br)c1-c1c(F)cc(F)cc1F [Compound 108]	H (H shows the control value of more than 50%)	L (L shows the control value of 50% or less)	H (H shows the control value of more than 50%)
O=c1c(Cl)cn(-c2cc(F)ccc2Cl)c(-c2c(F)cccc2F)c1Br [Compound 109]	H (H shows the control value of more than 50%)	L (L shows the control value of 50% or less)	H (H shows the control value of more than 50%)
O=c1c(Cl)cn(-c2cc(F)ccc2Cl)c(-c2c(F)cccc2F)c1Cl [Compound 110]	H (H shows the control value of more than 50%)	L (L shows the control value of 50% or less)	H (H shows the control value of more than 50%)
Cc1ccccc1-n1cc(Br)c(=O)c(Cl)c1-c1c(F)cccc1F [Compound 111]	L (L shows the control value of 50% or less)	L (L shows the control value of 50% or less)	H (H shows the control value of more than 50%)
Cc1ccccc1-n1cc(Br)c(=O)c(Br)c1-c1c(F)cccc1F [Compound 112]	L (L shows the control value of 50% or less)	L (L shows the control value of 50% or less)	H (H shows the control value of more than 50%)
Cc1ccccc1-n1cc(Cl)c(=O)c(Br)c1-c1c(F)cccc1F [Compound 113]	H (H shows the control value of more than 50%)	L (L shows the control value of 50% or less)	H (H shows the control value of more than 50%)
Cc1ccccc1-n1cc(Cl)c(=O)c(Cl)c1-c1c(F)cccc1F [Compound 114]	H (H shows the control value of more than 50%)	L (L shows the control value of 50% or less)	H (H shows the control value of more than 50%)
CC(C)Cn1cc(Br)c(=O)c(Cl)c1-c1c(F)cc(F)cc1F [Compound 115]	H (H shows the control value of more than 50%)	L (L shows the control value of 50% or less)	H (H shows the control value of more than 50%)
CC(C)Cn1cc(Br)c(=O)c(Br)c1-c1c(F)cc(F)cc1F [Compound 116]	H (H shows the control value of more than 50%)	L (L shows the control value of 50% or less)	H (H shows the control value of more than 50%)
O=c1c(Br)cn(-c2cccc(Br)c2)c(-c2c(F)cc(F)cc2F)c1Br [Compound 118]	L (L shows the control value of 50% or less)	L (L shows the control value of 50% or less)	L (L shows the control value of 50% or less)
O=c1c(Cl)cn(-c2cccc(Br)c2)c(-c2c(F)cc(F)cc2F)c1Br [Compound 119]	H (H shows the control value of more than 50%)	L (L shows the control value of 50% or less)	L (L shows the control value of 50% or less)
O=c1c(Cl)cn(-c2cccc(Br)c2)c(-c2c(F)cc(F)cc2F)c1Cl [Compound 120]	H (H shows the control value of more than 50%)	L (L shows the control value of 50% or less)	H (H shows the control value of more than 50%)
O=c1c(Cl)cn(CC2CCCCC2)c(-c2c(F)cc(F)cc2F)c1F [Compound 121]	L (L shows the control value of 50% or less)	L (L shows the control value of 50% or less)	L (L shows the control value of 50% or less)
O=c1c(Cl)cn(CC2CCCCC2)c(-c2c(F)cc(F)cc2F)c1Br [Compound 123]	H (H shows the control value of more than 50%)	L (L shows the control value of 50% or less)	L (L shows the control value of 50% or less)
O=c1c(Br)cn(CC2CCCCC2)c(-c2c(F)cc(F)cc2F)c1Cl [Compound 124]	H (H shows the control value of more than 50%)	L (L shows the control value of 50% or less)	L (L shows the control value of 50% or less)
O=c1c(Br)cn(CC2CCCCC2)c(-c2c(F)cc(F)cc2F)c1Br [Compound 125]	H (H shows the control value of more than 50%)	L (L shows the control value of 50% or less)	L (L shows the control value of 50% or less)
O=c1c(Br)cn(-c2ccon2)c(-c2c(F)cc(F)cc2F)c1Cl [Compound 126]	H (H shows the control value of more than 50%)	L (L shows the control value of 50% or less)	H (H shows the control value of more than 50%)
O=c1c(Br)cn(-c2ccon2)c(-c2c(F)cc(F)cc2F)c1Br [Compound 127]	H (H shows the control value of more than 50%)	L (L shows the control value of 50% or less)	H (H shows the control value of more than 50%)

Reference: patent US11000038B2, “Pyridone compounds and agricultural and horticultural fungicides containing the same as active ingredients” (priority 2017, dated 2021)
